# Reference: US8163870B2, “Channel forming peptides” (Kansas State University Research Foundation, priority 2000, dated 2012)
# Like-named read-outs stand apart in the source and are kept apart here. For some of these results: At least one peptide structure holds a part that was inferred or is arguable (an end, a ring closure or a residue). Some entries repeat one wording, which the source may state once for all of them. Some results were stated once for a whole list of compounds, not compound by compound. No end group written: not given here.
# Columns and labels:
# [1] = tested on: MDCK cells; format: cell-based, canine; conditions: for increase in Isc: MDCK monolayers with 1-EBIO, apical escalating peptide concentrations
# From the text: Cell culture: MDCK cells were a generous gift of Dr. Lawrence Sullivan (Kansas University Medical Center, Kansas City, Kans.). T84 cells were obtained from Dr. Daniel Devor (University of Pittsburgh, Pittsburgh, Pa.). MDCK and T84 cells were maintained with similar culture procedures. The culture medium was a 1:1 mixture of DMEM and Ham's F-12 (Gibco BRL, Grand Island, N.Y.) supplemented with 5% heat inactivated fetal bovine serum (BioWhittaker, Walkersville, Md.), and 1% penicillin and streptomycin (Gibco BRL). Cells were grown in plastic culture flasks in a humidified environment with 5% CO2 at 37° C. and passaged every 5-7 days. For Ussing chamber experiments, cells were plated on 1.13 cm^2 permeable supports (Snapwell™, Costar®, Cambridge, Mass.) at a density of approximately 1×10^6 cells/well and incubated in DMEM/F-12 supplemented with FBS and antibiotics (changed every other day) for 2-3 weeks prior to being mounted in modified Ussing flux chambers.
# To form monolayers, the cells were plated onto the upper surface of a permeable membrane that forms the bottom of a plastic well. Two types were used. One was the Transwell™ insert (Costar®, Cambridge, Mass.) supported in a six-well tissue culture plate and the other type was the Snapwell™ (Costar®, Cambridge, Mass.). During incubation, the medium was replaced at 48-72 hour intervals. Confluent monolayers formed within 72 hours. Experiments were performed on the monolayers 6-9 days after the initial plating. Net fluid secretion responses were optimal after six days.
# Solutions: Ringer solution was made fresh daily. The final concentration (in mM) was 120 NaCl, 25 NaHCO3 3.3 KH2HPO4, 0.8 K2HPO4, 1.2 MgCl2, 1.2 CaCl2, (290±2 mOsmol). All components of the Ringer solution were from Sigma (St. Louis, Mo.).
# (§1) Epithelial electrical measurements: Transepithelial ion transport was evaluated in a modified Ussing chamber (Model DCV9, Navicyte, San Diego, Calif.). The Ussing chamber's fluid resistance compensation was completed in Ringer solution (see below). For electrical measurements cell monolayers were bathed in Ringer solution maintained at 37° C. and continuously bubbled with 5% CO2:95% O2. The transepithelial membrane potential (Vte) was clamped to zero and the transepithelial short circuit current (Isc), an indicator of net ion transport, was measured continuously with a voltage clamp apparatus (Model 558C, University of Iowa, Department of Bioengineering, Iowa City, Iowa). Data were digitally acquired at 1 Hz with a Macintosh computer (Apple Computer, Cuppertino, Calif.) using Aqknowledge software (ver. 3.2.6, BIOPAC Systems, Santa Barbara, Calif.) with an MP100A-CE interface.
# as §1, with “Transepithelial” for “Epithelial electrical measurements: Transepithelial”, “(composition (in mM) was 120 NaCl, 25 NaHCO3 3.3 KH2HPO4, 0.8 K2HPO4, 1.2 MgCl2, 1.2 CaCl2).” for “(see below).”
# MDCK cell monolayers (in the presence of 1-EBIO to maximize basolateral membrane K^+ conductance) were exposed on the apical aspect to escelating peptide concentrations. Maximal change in Isc (relative to the Isc prior to peptide exposure) was recorded following each increment in apical peptide concentration. […]
# [2] = Chemical cross-linking (BS3) and SDS-PAGE, oligomeric state of peptide in solution; format: physicochemical; conditions: SDS-PAGE
# Protocol: Chemical cross-linking: In order to visualize the oligomeric state of the peptide in solution a chemical cross-linking protocol was developed. Calculated amounts of each peptide were weighted out and dissolved in 1 mL of distilled water to make 1 mM stock solutions. A 100 mM stock solution of the chemical crosslinking reagent Bis[Sulfosuccinimidyl]suberate, BS^3, (Pierce Chemical Co., Rockford, Ill.) was prepared in dimethyl sulfoxide (DMSO). […] Sample were allowed to sit at room temperature for 15 minutes. 1-6 μL of 100 mM BS^3 was then added to the previously prepared peptide such that the crosslinking reagent was present in 20-fold excess. The final volume for each reaction was 100 μL. […] Each sample was then vacuum dried. Later dry samples were re-dissolved in 60 μL of distilled water along with 60 μL of a 2×-tricine SDS sample buffer (Novex, San Diego). All samples were then boiled at 100° C. for 5 minutes. 5 μL aliquots of each SDS boiled sample was then loaded into separate lanes of pre-cast, 1.0 mm, 10 well, 10-20% tricine gels (Novex, San Diego). Pre-made Novex tricine-SDS buffer was used in the electrophoresis. The reference well contained 1 μL of MultiMark® multi-colored molecular weight standard (Novex, San Diego). The electrophoresis was carried out at a constant 110 Volts for 90 minutes. The gel was then fixed in 40% methanol in water and the cross-linked peptides visualized using silver staining (SilverXpress® silver staining kit, Invitrogen, Carlsbad, Calif.).
# [3] = tested on: MDCK monolayers; experiment: Transepithelial electrical resistance (RTE) / conductance (gTE) across MDCK monolayers; format: cell-based, canine; conditions: MDCK monolayers, upon onset of channel activity
# Protocol: as §1, with “Transepithelial” for “Epithelial electrical measurements: Transepithelial”, “(composition (in mM) was 120 NaCl, 25 NaHCO3 3.3 KH2HPO4, 0.8 K2HPO4, 1.2 MgCl2, 1.2 CaCl2).” for “(see below).”
# MDCK cell monolayers (in the presence of 1-EBIO to maximize basolateral membrane K^+ conductance) were exposed on the apical aspect to various concentrations of selected peptides as indicated.
# In this experiment, the MDCK monolayers were initially incubated with 60 μM of SEQ ID No. 27. When the residual resistance reached approximately 10% of the starting value, the peptide was removed by aspiration and followed by the addition of pre-warmed Ringer solution. This solution was subsequently removed and replaced an additional five times over the next 2 minutes. In this figure, the solid central line represents the measured current at zero mV and the vertical deflections represent the current recorded during periodic 1 mV bipolar pulses. Pulse amplitude is inversely proportional to RTE in accordance with Ohm's law.
# Additional experiments have been conducted to test for complete reversibility of peptide-induced changes in RTE. Monolayers were exposed to peptide (60 μM) in an Ussing chamber for ˜20 minutes to document decreases in RTE, recovered and returned to the cell culture incubator for two to five days with the apical and basolateral media refreshed daily before subsequent assessment of basal RTE and responsiveness to peptide. In the previous example, the return of RTE was only followed for hours. In this example, the restoration of RTE was measured over days to determine the minimum time require for full recovery.
# Electrical measurements. Transepithelial ion transport was evaluated in modified Ussing chambers (Model DCV9; Navicyte, San Diego, Calif.). For typical electrical measurements of ion flux, cells were bathed in symmetrical Ringer solution (composition in mM: 120 NaCl, 25 NaHCO3, 3.3 KH2HPO4, 0.8 K2HPO4, 1.2 MgCl2, 1.2 CaCl 2; 290±2 mOsmol). The diffusion chambers were maintained at 37° C. and continuously bubbled with 5% CO2/95% O2 to maintain pH, provide aeration and mix the fluid in the chambers. The transepithelial potential (VTE) was clamped to zero, and ISC measured continuously with a voltage-clamp apparatus (Model 558C, University of Iowa, Department of Bioengineering, Iowa City, Iowa). Data were acquired at 1 Hz with a Macintosh computer (Apple Computer, Cuppertino, Calif.) using Aqknowledge software (ver. 3.2.6; BIOPAC Systems, Santa Barbara, Calif.) with an MP100A-CE interface. gTE was determined by exposing the epithelia to a 5 second 1 mV bipolar pulse at 100 second intervals. The recorded current deflections were used with Ohms law to calculate gTE: […]
# [4] = Nasal PD's in the transgenic CF mouse model; format: in vivo; conditions: diseased mice
# [5] = Circular dichroism in 20% TFE; format: physicochemical; conditions: water containing 20% TFE
# Protocol: Circular dichroism: Circular dichroism spectra were recorded on a Jasco Model J-720 spectropolarimeter in the range 180-250 nm using quartz cuvettes with a 0.2 mm pathlength. Eight scans recorded at a rate of 20 nm/minute were averaged and corrected for contributions of buffer (10 mM HEPES, pH 7.2). […] The molar ellipticity was calculated using d-10-camphorsulfonic acid (290.5=7783° cm2 dmol 1) as a reference (Chen, G. C., and J. T. Yang. 1977. Two point calibration of spectropolarimeter with d-10-camphorsulfonic acid. Anal. Lett. 10:1195-1207.). The line shapes of the spectra were analyzed using a least-square fitting routine by comparison to polylysine standards representing 100%-helix, -turn, or random coil, respectively.
sequence,measurement,setting,value
KKKKAARVGLGITTVWVTTIGLGVRAA (KKKKAARVGLGITTVWVTTIGLGVRAA; Modified Homo sapiens) [SEQ ID No. 9],increase in Isc,[1],> 15 μA/cm^2
KKKKPARVGLGITTVLVTTIGLGVRAA (KKKKPARVGLGITTVLVTTIGLGVRAA; Modified Homo sapiens) [SEQ ID No. 26],increase in Isc,[1],> 15 μA/cm^2
KKKKPARVGLGITTVLTMTTQW (Modified Homo sapiens) [SEQ ID No. 54],peptide concentration producing maximal effect on Isc (Imax),[1]; MDCK monolayers,less than 100 μM
same,increase in Isc,[1],> 15 μA/cm^2
KKKKPARVGLGITTVLTMTTRW (Modified Homo sapiens) [SEQ ID No. 55],peptide concentration producing maximal effect on Isc (Imax),[1]; MDCK monolayers,less than 100 μM
same,increase in Isc,[1],> 15 μA/cm^2
"KKKKPARVGLGITTVLVTTIGLGVRAP [SEQ ID No. 18, KKKKPARVGL GITTVLVTTI GLGVRAP]",monomeric fraction of cross-linked peptide,[2],> 90%
same,effect on transepithelial electrical resistance,[3],dramatic decrease in transepithelial electrical resistance
same,maximal ion transport rates,[1]; MDCK monolayers,up to 45 μAmp/cm^2
same,peptide concentration producing maximal effect on Isc (Imax),[1]; MDCK monolayers,100 µM
same,increase in Isc,[1],> 15 μA/cm^2
same,Activity profile in MDCK cells,[1]; peptide at 100 μM,17.4 at 100 μM μA/cm2
"PARVGLGITTVLTMTTQSSGSRAKKKK (PARVGLGITTVLTMTTQSSGSRAKKKK; Modified Homo sapiens) [SEQ ID No. 2, reference compound]",induced anion conductances relative to normal (unaffected) activity,[4],at least 60%
"PARVGLGITTVLVTTIGLGVRAPKKKK [SEQ ID No. 19, PARVGLGITT VLVTTIGLGV RAPKKKK]",monomeric fraction of cross-linked peptide,[2],> 90%
same,aggregation state in solution,[2]; cross-linking,remained in monomer form
same,effect on transepithelial electrical resistance,[3],dramatic decrease in transepithelial electrical resistance
same,secondary structure by CD,[5],helical structure
same,increase in Isc,[1],> 15 μA/cm^2
same,Activity profile in MDCK cells,[1]; peptide at 200 μM,43.3 at 200 μM μA/cm2
